This is one part of the list. These are further read-outs of the screen, such as a control signal, another cell line or another target. No call is given for them. Most of these compounds were active or inconclusive in the main read-out, so they are no random draw.
Test: up-regulation of insulin promoter-GFP reporter – imaging, high-content screening, mouse beta cells (AID 1625);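 note: total cells summed across four imaged fields per well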
Conditions: MIN6 insulin promoter-GFP reporter, measured here: cytotoxicity, nuclei count, at 5 µM
In the case of `COc1cc(NS(=O)(=O)c2ccc(C)cc2)c2ncccc2c1`, the cell count is reported as 424 cells.
Work on `COCCNc1nc2c(c(=O)n(C)c(=O)n2C)n1Cc1cccc(C(F)(F)F)c1` yielded a cell count of 478 cells.
In the case of `CCOC(=O)/C(=C/C=C1\Sc2cc(OCC)c(OCC)cc2N1CC)C(C)=O`, the cell count is reported as 1080 cells.
Work on `CCCCCCCCn1c2c(c(=N)c3ccccc31)CCC2` yielded a cell count of 220 cells.
For `COCc1cc(C)nc(Nc2ccccc2C)c1C#N`, the cell count was 1150 cells.
For `CCN1CCN(c2cc(-c3ccccc3)nc3cc(-c4cccc(F)c4)nn23)CC1`, the cell count was 376 cells.
Compound `CCN(CC)c1ccc(/C=C2/SC(=O)N(C(C)C)C2=O)o1` has a cell count of 1220 cells.
`O=C(CNC(=O)C1CCCCC1)Nc1cc(Cl)ccc1Cl` gave a cell count of 485 cells.
In the case of `COc1cc(N2CCCC2)c(OC)cc1/C=C(/C#N)c1cccc(Br)c1`, the cell count is reported as 1010 cells.
With `O=C(OCCN1C(=O)c2cccc3c(N4CCOCC4)ccc(c23)C1=O)c1ccc(Cl)cc1Cl` the cell count was 795 cells.
`Cn1cc(/C=C2\SC(=S)N(NC(=O)c3ccccc3)C2=O)c2ccccc21` showed a cell count of 1450 cells.
Compound `CC1=NNC(=O)C1CCC(=O)N/N=C/c1ccc(C)cc1` (stereo not given) has a cell count of 1160 cells.
Work on `Cc1ccc(-n2c(C)cc(C(=O)COC(=O)c3c(C)noc3C)c2C)cc1` yielded a cell count of 477 cells.
In the case of `CC(=O)N1CCN(Cc2nc3cc(NC(=O)c4ccccc4)ccc3n2C)CC1`, the cell count is reported as 1510 cells.
Work on `Cc1ccc(C2CC(=O)NC(SCc3ccccc3)=C2C#N)o1` (stereo not given) yielded a cell count of 966 cells.
For `COc1cccc(OCCOCCOc2ccc(C)cc2[N+](=O)[O-])c1`, the cell count was 396 cells.
In the case of `Cc1ccc(-c2cn(-c3ccc(OC(F)F)cc3)c3[n+]2CCCCC3)cc1`, the cell count is reported as 205 cells.
For `CC(C)OC(=O)CN1C(=O)S/C(=C/c2ccc(N3CCCCC3)o2)C1=O`, the cell count was 887 cells.
In the case of `c1ccc(-c2nnc(-c3ccccn3)nc2NC2CCCCC2)cc1`, the cell count is reported as 137 cells.
Work on `CC(=S)/C=C1\Sc2ccccc2N1C` yielded a cell count of 473 cells.
With `CCOC(=O)c1cnc(-n2nc(C)cc2C)nc1Nc1ccc(N(C)C)cc1` the cell count was 342 cells.
Compound `CCOC(=O)c1c(CSc2nc(C)cc(C)c2C#N)n(C)c2cc(Br)c(OC(C)=O)cc12` has a cell count of 371 cells.
In the case of `CC(C)n1c(-c2ccco2)csc1=Nc1cccnc1`, the cell count is reported as 477 cells.
`COc1ccc(C[C@H]2CN3C(=NC[C@@H]3Cc3ccc(O)cc3)N2C[C@H](C)NC(=O)c2ccc(C)c(Br)c2)cc1` showed a cell count of 347 cells.
`COc1ccc(NC(=O)C2Cc3ccccc3CN2C(=O)c2ccccc2)cn1` (stereo not given) showed a cell count of 456 cells.
In the case of `CC(=O)c1sc2nc(-c3cccs3)cc(C(F)(F)F)c2c1N`, the cell count is reported as 1320 cells.
In the case of `CC(=O)Nc1cccc(C(=O)/C=C/c2ccc(N(C)C)cc2)c1`, the cell count is reported as 1240 cells.
In the case of `CC(CCc1ccco1)NC(=O)c1cc2c(-c3ccccc3F)nn(C)c2s1` (stereo not given), the cell count is reported as 364 cells.
Work on `CC(C)n1c(NCc2cc(Cl)ccc2O)nc2ccccc21` yielded a cell count of 342 cells.
`CC1=C([N+](=O)[O-])C(c2cccc(Br)c2)C2=C(N1)c1ccccc1C2=O` (stereo not given) gave a cell count of 456 cells.
Compound `CC(=O)c1c(C)[nH]c(C(=O)Nc2ccc(C)cn2)c1C` has a cell count of 375 cells.
With `CC(C)(C)C(C(Oc1ccc(Cl)cc1)n1cncn1)n1nnnc1C(c1cccc(Cl)c1)N1CCCCC1` (stereo not given) the cell count was 395 cells.
For `Oc1ccc(CN2CCN(c3ccccc3)CC2)c2cccnc12`, the cell count was 465 cells.
Work on `CC(C)N1CC=C2C(C#N)=C(N)C(C#N)(C#N)C(c3ccccc3)C2C1` (stereo not given) yielded a cell count of 1180 cells.
`CC(C)(C)CC(C)(C)NC(=S)Nc1ccc2nc(-c3ccccn3)c(-c3ccccn3)nc2c1` gave a cell count of 392 cells.
Work on `CCCN1C(=O)/C(=C/c2c(N3CCNC(=O)C3CC(=O)OCC)nc3c(C)cccn3c2=O)SC1=S` (stereo not given) yielded a cell count of 1010 cells.
Compound `CC1c2[nH]c3ccccc3c2CCN1C(=O)Nc1ccccc1` (stereo not given) has a cell count of 492 cells.
`COc1ccc(C(=O)/C=C/C(=O)N(CC(=O)NC2CCCCC2)Cc2cccs2)c(O)c1` showed a cell count of 358 cells.
For `Cn1c(SCC(=O)N2CCCc3ccccc32)nc2ccccc2c1=O`, the cell count was 445 cells.
Compound `CCOC(=O)Cn1c(=O)c(-c2cc(Br)ccc2N)nc2ccccc21` has a cell count of 563 cells.
In the case of `Cc1cc(C)c(/C=N/n2c(C)cc(C)c(C#N)c2=O)c(C)c1`, the cell count is reported as 312 cells.
With `CCOCCCNc1nc2c(C)cccn2c(=O)c1/C=C1\SC(=S)N(CC(C)C)C1=O` the cell count was 932 cells.
Compound `CCOC(=O)C1=C(C)NC(=O)NC1c1ccc(N2CCC(c3ccccc3)=N2)cc1` (stereo not given) has a cell count of 1280 cells.
Compound `NCCNc1ccc([N+](=O)[O-])c(NC2CC2)c1` has a cell count of 491 cells.
Compound `Nc1c(C(=O)c2cccs2)sc2nsc(SCCN3CCCCC3)c12` has a cell count of 1080 cells.
Compound `CC1CCN(S(=O)(=O)c2ccc3c(c2)C(=NO)c2cc(S(=O)(=O)N4CCC(C)CC4)ccc2-3)CC1` has a cell count of 263 cells.
In the case of `O=C(Nc1ccc2c(c1)nc1n2CCCCC1)c1cc(S(=O)(=O)N2CCOCC2)ccc1Cl`, the cell count is reported as 265 cells.
For `Cc1c(C(=O)NC(C)C)c(-c2ccccc2)nn1-c1ccccc1`, the cell count was 364 cells.
For `CCN(CC)c1ccc(/C=C/c2cc(-c3ccccc3)c3ccccc3n2)cc1`, the cell count was 1240 cells.
Work on `Cc1c2ccccc2nc2c(F)c(NC(C)C)c(F)c(F)c12` yielded a cell count of 1320 cells.
`O=C(C1=C[C@H](C2CC2)C[C@H](OCCCCO)O1)N1CCN(Cc2ccccc2)CC1` showed a cell count of 1480 cells.
Compound `CCCSc1nc2sc3c(c2c(=O)[nH]1)CCN(Cc1ccccc1)C3` has a cell count of 1750 cells.
`Cc1ccc2[nH]c3c(N4CCc5ccccc5C4)ncnc3c2c1` gave a cell count of 419 cells.
`CC1CC2(C)Oc3ccccc3CC2C(C)C1CNCCCN(C)C` (stereo not given) gave a cell count of 376 cells.
Work on `N#Cc1ccc(CSc2nnc(NC(=O)c3ccc4ncsc4c3)s2)cc1` yielded a cell count of 1380 cells.
Work on `CCOc1ccc(-n2c(SCC(=O)NC(C)CC)nc3n[nH]c(C)c3c2=N)cc1` (stereo not given) yielded a cell count of 1020 cells.
Compound `CCCOc1nc2c(c(=O)n(C)c(=O)n2C)n1Cc1cccc2ccccc12` has a cell count of 341 cells.
`COCCNC(=O)Cc1ccc(F)cc1` showed a cell count of 1300 cells.
With `CCN1CC=C2C(C#N)=C(N)C(C#N)(C#N)C(c3cc(Cl)ccc3Cl)C2C1` (stereo not given) the cell count was 1200 cells.
`COc1ccc(CN2C(=O)/C(=C/c3ccc(-c4ccc(Cl)c(C(=O)O)c4)o3)SC2=S)cc1` showed a cell count of 1070 cells.
`CC/C(=N\NC(=O)CCC(=O)NCc1ccccc1)c1ccc(O)cc1` showed a cell count of 476 cells.
Work on `COc1ccccc1NC(=O)N1CCN(c2cc(-c3ccccc3)nc3ncnn23)CC1` yielded a cell count of 193 cells.
In the case of `CC(C)(C)C(=O)Cn1ncc(Cl)c(Cl)c1=O`, the cell count is reported as 234 cells.
With `COc1ccc(-c2cc(C(F)(F)F)n3nc(C(=O)N4CCCCC4)cc3n2)cc1OC` the cell count was 461 cells.
With `COc1ccc(/C=N/NC(=O)c2ccc(COCC(F)(F)C(F)F)cc2)cc1` the cell count was 434 cells.
With `COc1cc(N2CCCC2)c(OC)cc1/C=C(/C#N)c1cccc(F)c1` the cell count was 619 cells.
In the case of `Cc1ccc(-c2c[n+]3c(n2-c2ccccc2)SCC3)cc1`, the cell count is reported as 413 cells.
Compound `CCOC(=O)c1cccc(NC(=O)c2cncc(Br)c2)c1` has a cell count of 475 cells.
In the case of `COc1cccc(OC)c1OCCN(C)C`, the cell count is reported as 763 cells.
`CCOC(=O)N1CCN(c2ncnc3c2[nH]c2ccc(F)cc23)CC1` gave a cell count of 314 cells.
In the case of `CCOC(=O)N1CCN(S(=O)(=O)c2ccc3c(c2)oc(=O)n3C)CC1`, the cell count is reported as 1340 cells.
`O=C(N/N=C/c1cc(Cl)ccc1O)C(=O)Nc1ccccc1OC(F)(F)C(F)F` showed a cell count of 450 cells.
`CCOC(=O)c1ccc(N=C2C(=S)N(c3ccc(C(=O)OCC)cc3)C(=N)N2/N=C/c2ccccc2)cc1` gave a cell count of 247 cells.
With `COc1cccc(N2CCN(c3ncccn3)CC2)c1` the cell count was 1410 cells.
With `CCN1/C(=C/c2cc[n+](CCCS(=O)(=O)[O-])c3ccccc23)Sc2ccccc21` the cell count was 1080 cells.
For `Cc1csc(NC(=O)CN(C)S(=O)(=O)c2cccc3cccnc23)n1`, the cell count was 766 cells.
`CC(C)(C)C(=O)Cn1ncc(Br)c(Br)c1=O` showed a cell count of 465 cells.
Work on `Cc1cc(NC(=O)C2CC(c3ccc(F)cc3)=NO2)n(-c2ccccc2)n1` (stereo not given) yielded a cell count of 277 cells.
Work on `O=C(Nc1ccc(S(=O)(=O)N2CCCCC2)cc1)c1ccc(CN2CCOCC2)cc1` yielded a cell count of 480 cells.
Work on `N#CC(C#N)=NNc1ccc(S(=O)(=O)N2CCCC2)cc1` yielded a cell count of 344 cells.
In the case of `Nc1c(C(=O)N/N=C/c2cccnc2)oc2nc(-c3ccccc3)cc(-c3ccco3)c12`, the cell count is reported as 965 cells.
In the case of `CCn1c2ccccc2c2nnc(SCC(=O)Nc3cc(C)on3)nc21`, the cell count is reported as 1360 cells.
In the case of `CC(C)(C)c1ccc(NC(=O)COc2ccc(-n3ccnc3)cc2)cc1`, the cell count is reported as 453 cells.
`N#Cc1c2c(c(-n3cnc4ccccc43)n3c1nc1ccccc13)CCC2` gave a cell count of 1450 cells.
`O=C(N=C1SCC(=O)N1c1ccccc1Cl)c1ccccc1` gave a cell count of 1390 cells.
`CCOC(=O)C1CCN(c2c(NCCCN3CCN(Cc4ccccc4)CC3)c(=O)c2=O)CC1` showed a cell count of 434 cells.
Compound `CC(=O)Nc1ccccc1NC(=O)CC(C)(C)C` has a cell count of 412 cells.
For `C=CCN1C(=O)/C(=C\C=C2\N(C)c3ccccc3C2(C)C)SC1=S`, the cell count was 1190 cells.
Work on `N#CC1=C(N)C(C#N)(C#N)[C@H](c2ccoc2)[C@H]2CN(Cc3ccccc3)CC=C12` yielded a cell count of 843 cells.
For `CCOC(=O)c1ccc2c(c1)n(CC)c(/C=C/N(C)c1ccccc1)[n+]2CC`, the cell count was 379 cells.
`CC1CCN(c2ncnc3ccccc23)CC1` gave a cell count of 404 cells.
Work on `Cc1n[nH]c(C)c1N1C(=O)c2cccc3c(N4CCCCCC4)ccc(c23)C1=O` yielded a cell count of 908 cells.
Work on `COc1ccc(-c2c[n+](CC(=O)c3ccccc3)c3n2CCCCC3)cc1` yielded a cell count of 439 cells.
`Cc1cc(C)c(C#N)c(SCC2COc3ccccc3O2)n1` (stereo not given) gave a cell count of 1070 cells.
For `CCOC(=O)c1ccc(S(=O)(=O)Nc2ccccc2-c2nnn(CC)n2)cc1`, the cell count was 295 cells.
Compound `CN(C)S(=O)(=O)c1ccc(NC(=O)c2cc(-c3cccs3)nc3ccccc23)cc1` has a cell count of 347 cells.
In the case of `O=c1ccc(NS(=O)(=O)c2ccccc2)cn1Cc1ccc(Cl)c(Cl)c1`, the cell count is reported as 1480 cells.
In the case of `COc1cc(NC(=O)Cn2ncc(Cl)c(Cl)c2=O)c(C)cc1[N+](=O)[O-]`, the cell count is reported as 208 cells.
For `COc1ccc2c(c1)sc(=N)n2C`, the cell count was 466 cells.
`COc1ccc(Cn2c(-c3ccc(C)cc3)c[n+]3ccccc23)cc1` showed a cell count of 498 cells.
Compound `CC1CCc2c(sc3nn[nH]c(=O)c23)C1` (stereo not given) has a cell count of 1260 cells.
Work on `C=CC[n+]1c(/C=C2\C=Cc3cc(C)ccc3N2CC)ccc2ccccc21` yielded a cell count of 334 cells.
In the case of `COc1cc([N+](=O)[O-])ccc1-c1ccc(/C=N/NC(N)=O)o1`, the cell count is reported as 896 cells.
In the case of `O=C(NC1CCCC1)c1cc(COc2ccc3ncccc3c2)on1`, the cell count is reported as 462 cells.
`CC(C)c1ccc(/C=C/C(=O)Nc2nncs2)cc1` showed a cell count of 436 cells.

Reference: PubChem BioAssay AID1625 (Sanford-Burnham Center for Chemical Genomics, 2009)
